{"source": "PubChem BioAssay AID485344", "about": "(National Center for Advancing Translational Sciences (NCATS), 2010)", "note": "About 6,900 (2%) of roughly 340,000 compounds were called active. No stated cut-off is given here; in the data, active means inhibition above about 30%; inactive means below that, where a call was filed. The entries are a selection whose mix differs from that of the whole data set. Entries without a call were filed so in the source."}
{"target": "D(2) dopamine receptor (Homo sapiens) (UniProt P14416)", "sequence (P14416 whole entry, looked up)": "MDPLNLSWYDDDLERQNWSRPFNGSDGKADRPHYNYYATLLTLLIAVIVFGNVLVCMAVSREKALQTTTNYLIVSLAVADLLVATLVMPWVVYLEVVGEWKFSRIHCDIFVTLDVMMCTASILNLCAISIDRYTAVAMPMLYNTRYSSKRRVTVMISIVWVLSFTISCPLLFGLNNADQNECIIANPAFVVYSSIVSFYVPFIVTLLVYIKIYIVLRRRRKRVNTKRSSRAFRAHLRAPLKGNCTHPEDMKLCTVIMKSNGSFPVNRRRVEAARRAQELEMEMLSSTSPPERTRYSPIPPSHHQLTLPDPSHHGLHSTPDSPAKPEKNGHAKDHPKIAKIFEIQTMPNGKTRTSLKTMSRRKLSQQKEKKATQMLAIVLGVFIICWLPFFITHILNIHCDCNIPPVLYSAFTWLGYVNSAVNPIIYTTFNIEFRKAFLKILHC", "assay": "HTS Assay for Allosteric Antagonists of the Human D2 Dopamine Receptor: Primary Screen for Antagonists; further: 0% is about no effect", "conditions": "HEK293 TREx D2 cells, calcium flux, dopamine EC80; at 10 µM; stronger effect = higher value", "outline": "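Compounds are added to dye-loaded, induced HEK293 T-REx cells coupled to calcium release via D2; after a 3 min kinetic read an EC80 dopamine stimulus is given and fluorescence is recorded for 3 more min.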"}
{"smiles": "COc1ccccc1CNc1ccc(-c2nc(-c3ccncc3)no2)cc1[N+](=O)[O-]", "inhibition": "-14.8%"}
{"smiles": "CCOc1ccc(NC(=O)CSC2=Nc3ccccc3C3=NC(CC(=O)NCc4ccco4)C(=O)N23)cc1", "note": "(stereo not drawn)", "inhibition": "17.9%"}
{"smiles": "COc1ccc(CNC(=O)CC(c2ccc(OC)c(OC)c2)N2Cc3ccccc3C2=O)cc1", "note": "(stereo not drawn)", "inhibition": "9.03%"}
{"smiles": "Cc1cc2ccccc2n1CCNC(=O)c1cccc(Cl)c1", "inhibition": "4.08%"}
{"smiles": "CC(C)c1ccc(NC(=O)c2cc(S(=O)(=O)NCc3ccccc3Cl)ccc2F)cc1", "inhibition": "0.331%"}
{"smiles": "CCOC(=O)c1c(C)[nH]c(C)c1S(=O)(=O)N1CCCC(C(=O)Nc2ccc(F)cc2F)C1", "note": "(stereo not drawn)", "inhibition": "-0.811%"}
{"smiles": "COc1cc(C2CC(=O)N(c3ccccc3)C3=C2C(=O)OC3)cc(OC)c1OC", "note": "(stereo not drawn)", "inhibition": "21.7%"}
{"smiles": "O=C(NC1CCCCCC1)c1ccc2c(c1)sc1nc(-c3ccccc3)cn12", "inhibition": "11.9%"}
{"smiles": "C=C(C)CSc1nc2sc3c(c2c(=O)n1-c1ccccc1)CCC(C)C3", "note": "(stereo not drawn)", "inhibition": "-4.66%"}
{"smiles": "CCN1CCN(c2ncnc3c2cnn3-c2ccc(C)cc2)CC1", "inhibition": "8.9%"}
{"smiles": "CCOc1ccc(NC(=O)CSc2cn(CC(=O)N3CCCCCC3)c3ccccc23)cc1", "inhibition": "0.6%"}
{"smiles": "CCOC(=O)N1CCN(C(=O)c2ccc(OCC)c(OCC)c2)CC1", "inhibition": "active: 32.7%"}
{"smiles": "COc1ccc(-c2n[nH]c3c2C(c2ccc(O)cc2)N(c2ccc(Br)cc2)C3=O)cc1", "note": "(stereo not drawn)", "inhibition": "4.66%"}
{"smiles": "COc1ccc(CCNC(=O)c2ccc(CS(=O)(=O)Cc3cccc(C)c3)o2)cc1OC", "inhibition": "-16%"}
{"smiles": "Cc1ccc(CNC(=O)C(=O)NCC(c2ccco2)S(=O)(=O)c2cccs2)cc1", "note": "(stereo not drawn)", "inhibition": "-0.296%"}
{"smiles": "CCN1CCN(C(c2ccc(F)cc2)c2c(O)cc(C)n(CCOC)c2=O)CC1", "note": "(stereo not drawn)", "inhibition": "6.03%"}
{"smiles": "Cc1cc(OCC(=O)Nc2ccc(Br)cc2)cc2c1C(=O)CC(C)(C)O2", "inhibition": "active: 41.2%"}
{"smiles": "CCc1cccc2c(-c3ccc(F)cc3)nc(SCC(=O)Nc3ccccc3)nc12", "inhibition": "-19.9%"}
{"smiles": "CC(C)CCNC(=O)C1CCN(C(=O)N2CCOc3ccc(Cl)cc32)CC1", "inhibition": "-5.13%"}
{"smiles": "COc1ccc(C(=O)Nc2ccc(-c3cc4ccccc4oc3=O)c(C)c2)cc1OC", "inhibition": "11.3%"}
{"smiles": "O=C(C1CCC(Cn2c(=O)c3sccc3n(Cc3cccc(F)c3)c2=O)CC1)N1CCCCC1", "note": "(stereo not drawn)", "inhibition": "11.5%"}
{"smiles": "O=C(NCCc1ccccc1)C(=O)NCC(c1cccnc1)N1CCN(c2ccccc2F)CC1", "note": "(stereo not drawn)", "inhibition": "-6.34%"}
{"smiles": "COc1ccccc1Nc1nn2c(=O)c3ccc(C(=O)NCc4ccc(F)cc4)cc3nc2s1", "inhibition": "-11.6%"}
{"smiles": "COc1ccc(NC(=O)c2c(C)oc3ccc(O)c(CN4CCC(C)CC4)c23)cc1", "inhibition": "12.4%"}
{"smiles": "COc1cccc(OCC(=O)NCCS(=O)(=O)N2CCN(c3ccccc3F)CC2)c1", "inhibition": "-3.84%"}
{"smiles": "Cc1oc2ncn(CC(C)C)c(=O)c2c1C(=O)NCCc1ccccc1", "inhibition": "-9.38%"}
{"smiles": "S=C(Nc1ccc(Cl)cc1)NC1CC2CCC(C1)N2Cc1ccccc1", "note": "(stereo not drawn)", "inhibition": "active: 93.3%"}
{"smiles": "Cc1ccc(-c2nc(CNC(=O)Nc3ccccc3)c(C)o2)cc1", "inhibition": "-5.19%"}
{"smiles": "COc1ccc(-c2cn3cccnc3n2)cc1NC(=O)Cc1ccccc1", "inhibition": "4.01%"}
{"smiles": "COc1ccccc1N(C)S(=O)(=O)c1ccc(C(=O)NCC2CCCCC2)cc1", "inhibition": "active: 79.8%"}
{"smiles": "CCc1nc2cccnc2n1-c1ccc(CC(=O)Nc2c(C)cccc2C)cc1", "inhibition": "-1.49%"}
{"smiles": "CCN(CC)C(=O)CSc1nc2ccsc2c(=O)n1Cc1ccccc1Cl", "inhibition": "3.1%"}
{"smiles": "Cc1cc(C)n2c(Nc3ccc(C(C)C)cc3)c(-c3ccsc3)nc2n1", "inhibition": "-12.4%"}
{"smiles": "Cc1ccc2c(c1)-c1c(cnn1CC(=O)N1CCN(c3ccccc3F)CC1)CO2", "inhibition": "-5.96%"}
{"smiles": "Cc1csc(NC(=S)Nc2cccc(Cl)c2)n1", "inhibition": "active: 32.1%"}
{"smiles": "CCCCN(CCCNC(=O)CN1N=C(c2ccc(C)cc2)CCC1=O)c1ccccc1", "inhibition": "0.312%"}
{"smiles": "CCN1CCN(c2nc(-c3ccccc3)c3ccccc3n2)CC1", "inhibition": "active: 58.8%"}
{"smiles": "CCN(CC)CCCNC(=O)CCCn1ncn2c(cc3occc32)c1=O", "inhibition": "2.28%"}
{"smiles": "Cc1c(-c2cccc(NC(=O)Nc3ccc(Cl)cc3)c2)nc2ncccn12", "inhibition": "-20.3%"}
{"smiles": "COc1ccccc1-c1noc(-c2ccc(NC3CCCCC3)c([N+](=O)[O-])c2)n1", "inhibition": "10.8%"}
{"smiles": "CC1CCCCN1C(=O)Cn1ncc2c3ccccc3n(Cc3ccccc3F)c2c1=O", "note": "(stereo not drawn)", "inhibition": "-3.9%"}
{"smiles": "COc1ccc(CN(C(=O)c2cc3ccccc3oc2=O)C2CCS(=O)(=O)C2)cc1OC", "note": "(stereo not drawn)", "inhibition": "8.2%"}
{"smiles": "CN(C)CCCNC(=O)/C(=C\\c1ccc(-c2cccc([N+](=O)[O-])c2)o1)NC(=O)c1ccccc1", "inhibition": "active: 36.9%"}
{"smiles": "c1ccc(-c2noc(-c3cccnc3NCc3ccco3)n2)cc1", "inhibition": "5.29%"}
{"smiles": "Cc1ccc(NC(=O)Cn2c(=O)oc3cc(S(=O)(=O)N4CCCCC4)ccc32)c(Cl)c1", "inhibition": "-6.61%"}
{"smiles": "Cc1cccc(Cn2c(SCc3ccc(C(=O)NCc4ccccc4F)cc3)nc3ccncc32)c1", "inhibition": "9.71%"}
{"smiles": "O=C(Nc1ccc(Cl)cc1F)c1cnc2sc(N3CCOCC3)nn2c1=O", "inhibition": "14.2%"}
{"smiles": "COCCCN1C(=O)c2ccccc2CC1(C)C(=O)NC1CCCCC1", "note": "(stereo not drawn)", "inhibition": "11.3%"}
